From paper PMC4125091
These are yes or no findings as the source states them, for the method shown. Binding seen in cells or lysates may run through a third protein. Some binding calls cover weakened binding; strength is not graded here. Where a sequence is shown, tags or fusion partners need not be part of it.

Chains of the proteins cited; added tags and fusions are not shown.
UniProt P06224: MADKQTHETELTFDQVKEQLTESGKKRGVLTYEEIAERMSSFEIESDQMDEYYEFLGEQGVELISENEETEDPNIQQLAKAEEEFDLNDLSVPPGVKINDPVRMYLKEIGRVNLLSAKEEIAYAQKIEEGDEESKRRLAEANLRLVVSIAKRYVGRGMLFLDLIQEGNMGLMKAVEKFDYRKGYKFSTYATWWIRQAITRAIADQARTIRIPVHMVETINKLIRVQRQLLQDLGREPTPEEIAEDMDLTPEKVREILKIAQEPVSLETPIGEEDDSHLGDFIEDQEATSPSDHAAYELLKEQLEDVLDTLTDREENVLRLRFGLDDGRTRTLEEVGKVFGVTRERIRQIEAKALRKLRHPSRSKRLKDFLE

T1: DivIVA-FLAG (B. subtilis) (UniProt P71021)
T1 sequence: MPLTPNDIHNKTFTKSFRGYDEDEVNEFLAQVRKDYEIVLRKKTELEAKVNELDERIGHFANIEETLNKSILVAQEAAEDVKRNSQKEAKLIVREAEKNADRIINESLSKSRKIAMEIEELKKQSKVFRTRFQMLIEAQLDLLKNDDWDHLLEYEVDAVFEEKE

T2: SpoIIE-FLAG (B. subtilis) (UniProt P37475)
T2 sequence: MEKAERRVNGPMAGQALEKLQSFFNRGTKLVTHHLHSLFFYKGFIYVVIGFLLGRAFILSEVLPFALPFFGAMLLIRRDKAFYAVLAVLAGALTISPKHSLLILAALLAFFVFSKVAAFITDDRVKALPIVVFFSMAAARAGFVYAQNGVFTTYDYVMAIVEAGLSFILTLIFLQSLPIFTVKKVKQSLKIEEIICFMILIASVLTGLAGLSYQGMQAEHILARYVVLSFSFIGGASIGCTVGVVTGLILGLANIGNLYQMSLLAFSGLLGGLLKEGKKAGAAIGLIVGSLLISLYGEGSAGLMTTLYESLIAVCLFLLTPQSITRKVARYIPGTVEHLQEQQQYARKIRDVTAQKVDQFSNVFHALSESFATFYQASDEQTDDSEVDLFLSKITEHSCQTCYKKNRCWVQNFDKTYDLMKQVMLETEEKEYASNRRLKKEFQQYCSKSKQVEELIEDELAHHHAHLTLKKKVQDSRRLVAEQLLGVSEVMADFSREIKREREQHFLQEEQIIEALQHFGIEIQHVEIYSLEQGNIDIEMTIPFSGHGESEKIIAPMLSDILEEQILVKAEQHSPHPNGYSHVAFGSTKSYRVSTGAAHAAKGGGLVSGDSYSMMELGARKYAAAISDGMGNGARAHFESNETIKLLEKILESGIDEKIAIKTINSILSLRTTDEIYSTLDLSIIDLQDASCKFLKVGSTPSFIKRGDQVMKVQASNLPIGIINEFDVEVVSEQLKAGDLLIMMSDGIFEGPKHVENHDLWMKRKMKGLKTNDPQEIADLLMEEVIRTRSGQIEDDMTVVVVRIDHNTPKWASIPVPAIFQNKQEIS


Tests used:
[1] = target: T1, DivIVA-FLAG (B. subtilis); assay: co-IP; anti-FLAG affinity resin incubated overnight at 4°C with Triton X-100-solubilized extracts of B. subtilis induced to sporulate for 1.5 h (50 mM Tris pH 7.4, 150 mM NaCl, 1 mM EDTA, 1% Triton X-100); washed, eluted with FLAG peptide; fractions immunoblotted with antisera to GFP, DivIVA or σ^A
[2] = target: T2, SpoIIE-FLAG (B. subtilis); assay: as above

| binding [1] | binding [2] | Molecule |
| --- | --- | --- |
| no binding | no binding | σ^A (from UniProt P06224 1-371) |
| binds | binds | DivIVA (native, untagged) (protein, UniProt P71021 1-164) MPLTPNDIHNKTFTKSFRGYDEDEVNEFLAQVRKDYEIVLRKKTELEAKVNELDERIGHFANIEETLNKSILVAQEAAEDVKRNSQKEAKLIVREAEKNADRIINESLSKSRKIAMEIEELKKQSKVFRTRFQMLIEAQLDLLKNDDWDHLLEYEVDAVFEEKE |
| no binding |  | MKFYTIKLPKFLGGIVRAMLGSFRKD (peptide, UniProt P37817 1-26) [SpoVM-GFP] |
| binds |  | SpoIIE-GFP (protein, UniProt P37475 1-827) MEKAERRVNGPMAGQALEKLQSFFNRGTKLVTHHLHSLFFYKGFIYVVIGFLLGRAFILSEVLPFALPFFGAMLLIRRDKAFYAVLAVLAGALTISPKHSLLILAALLAFFVFSKVAAFITDDRVKALPIVVFFSMAAARAGFVYAQNGVFTTYDYVMAIVEAGLSFILTLIFLQSLPIFTVKKVKQSLKIEEIICFMILIASVLTGLAGLSYQGMQAEHILARYVVLSFSFIGGASIGCTVGVVTGLILGLANIGNLYQMSLLAFSGLLGGLLKEGKKAGAAIGLIVGSLLISLYGEGSAGLMTTLYESLIAVCLFLLTPQSITRKVARYIPGTVEHLQEQQQYARKIRDVTAQKVDQFSNVFHALSESFATFYQASDEQTDDSEVDLFLSKITEHSCQTCYKKNRCWVQNFDKTYDLMKQVMLETEEKEYASNRRLKKEFQQYCSKSKQVEELIEDELAHHHAHLTLKKKVQDSRRLVAEQLLGVSEVMADFSREIKREREQHFLQEEQIIEALQHFGIEIQHVEIYSLEQGNIDIEMTIPFSGHGESEKIIAPMLSDILEEQILVKAEQHSPHPNGYSHVAFGSTKSYRVSTGAAHAAKGGGLVSGDSYSMMELGARKYAAAISDGMGNGARAHFESNETIKLLEKILESGIDEKIAIKTINSILSLRTTDEIYSTLDLSIIDLQDASCKFLKVGSTPSFIKRGDQVMKVQASNLPIGIINEFDVEVVSEQLKAGDLLIMMSDGIFEGPKHVENHDLWMKRKMKGLKTNDPQEIADLLMEEVIRTRSGQIEDDMTVVVVRIDHNTPKWASIPVPAIFQNKQEIS |
